According to PubChem BioAssay AID1159614 (National Center for Advancing Translational Sciences (NCATS), 2016):
Screen size: about 45,000 compounds; about 65 (0.1%) were called active. The call rests on the fitted dose curve; in most records, active means well fitted activation curve with a large enough effect; inconclusive means small, poorly fitted or top-dose-only effect; inactive means no such curve, though single readings can be large or run the other way. The list shows a part of the results.

What follows are molecules tested against Galactocerebrosidase (Homo sapiens) (UniProt P54803) (assay: A Novel Cell-Based Assay to Identify Small Molecules for B -Galactocerebrosidase). Conditions: 145M-Twi-hGALC-G270D cells (Twitcher mouse brain line with human GALC G270D), HMU-beta-Gal fluorescence, 48 h; series mostly up to 57.5 µM; activation: at the top concentration.
How it was run: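 Fluorogenic HMU-b-Gal hydrolysis (0.1 mM final, pH 5.2 citrate-phosphate with 1 mg/mL sodium taurocholate; carbonate stop buffer) measures mutant GALC activity after compound treatment of live 145M-Twi Twitcher brain cells stably carrying human GALC-G270D, with wild-type GALC line alongside; activation sought.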
Further: 0% is about no effect; nearly all actives have a fitted effect of over 65% in size.

UniProt P54803, sequence (P54803 whole entry, looked up): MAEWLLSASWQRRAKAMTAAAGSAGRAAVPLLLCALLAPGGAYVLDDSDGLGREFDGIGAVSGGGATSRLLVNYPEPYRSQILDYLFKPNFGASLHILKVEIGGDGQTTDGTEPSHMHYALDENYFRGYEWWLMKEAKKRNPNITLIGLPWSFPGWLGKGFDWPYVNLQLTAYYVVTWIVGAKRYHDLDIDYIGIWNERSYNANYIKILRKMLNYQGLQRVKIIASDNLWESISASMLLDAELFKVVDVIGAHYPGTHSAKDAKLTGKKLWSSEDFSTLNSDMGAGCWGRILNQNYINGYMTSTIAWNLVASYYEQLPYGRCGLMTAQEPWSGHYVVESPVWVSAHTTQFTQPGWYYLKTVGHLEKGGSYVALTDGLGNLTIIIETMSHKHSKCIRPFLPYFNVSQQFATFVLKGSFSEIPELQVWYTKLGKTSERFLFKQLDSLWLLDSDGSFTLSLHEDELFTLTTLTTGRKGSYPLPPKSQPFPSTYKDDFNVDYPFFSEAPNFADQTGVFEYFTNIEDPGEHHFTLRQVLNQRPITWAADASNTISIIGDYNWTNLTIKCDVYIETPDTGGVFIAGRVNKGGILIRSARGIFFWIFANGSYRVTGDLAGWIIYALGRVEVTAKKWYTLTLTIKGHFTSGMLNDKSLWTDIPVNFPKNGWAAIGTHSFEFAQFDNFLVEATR

activation, inactive:
Clc1cccc(CSc2nnc(C3CCNCC3)o2)c1 2.19%
CCSc1nn(CC(=O)Nc2cccc(Cl)c2)c(N)c1S(=O)(=O)c1ccc(OC)cc1 -38.9%
COc1ccc(OC)c(-c2noc(N3CCN(c4cccc(C)c4C)CC3)n2)c1 -2.11%
CC(=O)c1ccc(NC(=O)Cn2nc(C(F)(F)F)c3c2CCCC3)cc1 -14.3%
COc1cccc(CN(C(=O)c2cccc(C)c2)C2CCS(=O)(=O)C2)c1 (stereo not given) -18.3%
Cc1ccc2oc(C(=O)Nc3sc4c(c3C(=O)NCc3cccnc3)CCCC4)cc(=O)c2c1 -14.5%
CC(C)CC(=O)Nc1nnc(S(=O)(=O)N2CCc3ccccc32)s1 7.16%
Cc1ccc(-n2nc3c(=O)n(CCCC(=O)NC(C)c4ccccc4)nc(C)c3c2C)cc1 (stereo not given) -4.61%
COc1ccccc1Cn1cc(C(=O)c2ccc(C)cc2)c(=O)c2cc(F)cc(F)c21 -16.1%
CCCN(CCC)C(=O)Cn1c(=O)n(Cc2ccc(C(=O)NCCc3ccc(Cl)cc3)cc2)c(=O)c2ccccc21 5.18%
COc1ccc(-c2nc(SCC(=O)Nc3ccc4c(c3)OCCO4)c(-c3ccccc3)[nH]2)cc1 -16.8%
CCc1ccc(NC(=O)Cn2c(=O)n(-c3cc(C)cc(C)c3)c(=O)c3oc4ccccc4c32)cc1 -24.5%
Cc1ccc(CSc2oc(-c3cccs3)nc2S(=O)(=O)c2ccc(C)cc2)cc1 -19.6%
COC(=O)CC1Oc2ccc(C)cc2-n2cc(-c3ccc(C)cc3)nc21 (stereo not given) -6.21%
COC(=O)c1ccccc1NC(=O)C1=C(C)C(=O)OC12CCC(C)CC2 (stereo not given) -2.7%
CCc1ccccc1NC(=O)c1ccc2c(c1)nnn2C1CCCC1 6.96%
CCCNC(=O)c1ccc(Cn2c(=O)c3cccn3c3cccnc32)cc1 -4.17%
CCOc1ccccc1NC(=O)CN1C(=O)COc2ccc(S(=O)(=O)NC3CCCC3)cc21 -2.89%
Cc1ccc(CNC(=O)Cc2ccc(NC(=O)N3CCSc4ncccc43)cc2)cc1 -16.9%
O=C1CCCc2cc(S(=O)(=O)NCC3CCC(C(=O)NCc4ccc(F)cc4)CC3)ccc2N1 (stereo not given) 3.92%
CCOC(=O)c1c(C)c(-c2ccccc2)n(CC(=O)Nc2cc(C)cc(C)c2)c1C -11.6%
Cc1ccc(N2CCN(S(=O)(=O)c3ccc(Cl)c4ccccc34)CC2)c(C)c1 -13.1%
O=C(Nc1cccc(C(F)(F)F)c1)c1cccc(C(=O)Nc2cccc(C(F)(F)F)c2)c1 -0.592%
COCCCNC(=O)CCCn1c(=O)c2cccn2c2ccccc21 -7.92%
COc1ccccc1CNC(=O)CCC1N=C2c3ccccc3N=C(SCc3ccc(Cl)cc3)N2C1=O (stereo not given) -20%
O=C(Cn1ncc2c(=O)oc3ccccc3c21)N1CCN(c2ccc(Cl)cc2)CC1 -17.9%
COc1cccc(CSc2nc(-c3ccccc3F)nc3c2Cc2c(CO)cnc(C)c2O3)c1 -10.8%
COc1ccc(-n2nc3c(N4CCC(C(=O)NCCc5ccccc5)CC4)nnc(C)c3c2C)cc1 -7.86%
O=C(CSc1nnc(-c2cccc(F)c2)c(-c2cccc(F)c2)n1)NC1CCCCC1 -6.53%
COc1cc(Cl)c(C)cc1NC(=O)c1cnn(-c2ccc(F)cc2F)c1C1CCN(C(=O)OC(C)(C)C)CC1 -9.07%
COc1ccc2cc(CNc3ccc(C)cc3)c(=O)n(CC(=O)Nc3cccc(Cl)c3C)c2c1 -21.7%
CC(C)(C)c1ccc(C(=O)N(Cc2ccc(F)cc2)Cc2ccco2)cc1 -11.4%
Cc1ccc(-c2nnc(Nc3ccccc3)c3ccccc23)cc1S(=O)(=O)N1CCN(C)CC1 -13.4%
CCOC(=O)c1c(NC(=O)COc2ccccc2Br)sc2c1CCCCC2 -12.8%
CCN(CC)S(=O)(=O)c1nnc(NC(=O)c2ccc(Br)cc2)s1 -16.5%
COc1ccc(-c2nc(CSc3nnc(C)n4c3cc3oc(C)cc34)c(C)o2)cc1OC -11.7%
O=C(c1cccs1)N(Cc1cccnc1)c1nc2c(F)cc(F)cc2s1 -2.2%
CCN(CCCNC(=O)c1ccc(Sc2ccc(Cl)cc2)c(NC(C)=O)c1)c1ccccc1 -2.33%
CCn1cc2nc(SCc3ccc(F)cc3)n(CCc3ccccc3)c(=O)c2n1 -11.3%
COc1ccc(CCNC(=O)C2CCCN(S(=O)(=O)c3ccc4c(c3)oc(=O)n4C)C2)cc1OC (stereo not given) -2.38%
O=S(=O)(c1ccccc1)c1nc(-c2cccc(Cl)c2)oc1N1CCOCC1 -10.3%
Cc1cc(NC(=O)Cn2c(=O)oc3cc(S(=O)(=O)N4CCCC4)ccc32)ccc1Br -24.1%
CCC(=O)Nc1ccccc1-c1nc2ccccc2n(C(CC)C(=O)Nc2cccc(Cl)c2)c1=O (stereo not given) -9.64%
Cc1cc(C)c(Cn2c(=O)n(CCCCC(=O)NCc3ccccc3Cl)c(=O)c3ccccc32)c(C)c1 -11.4%
COc1ccc(NC(=O)C2=C(C)Nc3ncnn3C2c2ccc[nH]2)cc1 (stereo not given) -13.1%
CCOC(=O)c1c(C)sc(-c2c(-c3cccc(Cl)c3)[nH]c3c2c(=O)n(C)c(=O)n3C)c1O -13.6%
Cc1ccc(CNC(=O)CCc2cn(Cc3ccc(C)cc3)c3ccccc23)cc1 -11.7%
Cc1ccc2c(Br)cc(Br)c(O)c2n1 -8.46%
CCOc1ccc(-c2cc3nc(C4CCN(C(=O)OC(C)(C)C)CC4)c(C(=O)Nc4c(C)cccc4C)cn3n2)cc1 -10.7%
C=Cc1ccc(Cn2ccn(-c3ccc(F)c(F)c3)c(=O)c2=O)cc1 -18.2%
COc1ccc(CCN2C(=O)c3[nH]nc(-c4ccccc4O)c3C2c2ccccc2)cc1 (stereo not given) -5.91%
CCc1ccccc1N(C)S(=O)(=O)c1ccc2c(c1)C(C)(C)C(=O)N2C -4.77%
Cc1c(C(=O)N(C)C)sc2c1c(=O)n(-c1ccc(F)cc1)c(=O)n2Cc1ccccc1C#N -9.68%
COc1cccc(NC(=O)c2csnn2)c1 -13.9%
Fc1ccc2c(c1)-c1c(cnc3cc(-c4ccc(Cl)cc4)nn13)CO2 1.87%
CC(=O)N1CCc2cc(CNC(=O)Nc3ccc(Br)c(C)c3)ccc21 -8.09%
CC(=O)Nc1ccc(NC(=O)C2CCN(c3cnccn3)CC2)cc1 -6.58%
N#Cc1ccc(C(=O)Nc2cc3nn(-c4ccccc4)nc3cc2Cl)c(F)c1 -3.82%
CCOC(=O)C1CCN(S(=O)(=O)c2cc(Br)cc3c2N(C(=O)CC)CC3)CC1 -0.248%
Cc1ccc(Cl)cc1NC(=O)c1cnc(N2CCCCC2)c2ccccc12 -3.11%
